Reference: the supplement of paper PMC7125110
± gives the standard error. Variants at the floor of the assay are shown more often than the library holds them.

B1: glmS ribozyme (parent)
chain: AUAAAAGCGCCAGAACUACAGAAAUGUAGUUGACGAGGAGGAGGUUUAUCGAAUUUUCGGCGGAUGCCUCCAAA

Experiments:
Settings in all cases: with glucosamine-6-phosphate
[1] = variants of: B1; test: self-cleavage kobs at 40 uM GlcN6P; higher = faster cleavage; RNA array
Summary of the method: (§1)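 Glucosamine-6-phosphate in HEPES/KCl/Mg(OAc)2 buffer, at 40 μM to 10 mM, was flowed over barcoded ribozyme variants transcribed in situ by E. coli RNA polymerase on sequenced MiSeq chips. Tracking was through a hybridised Cy3 probe at 37 °C. kobs, kcat and KM came from exponential decay fits and weighted Michaelis–Menten fits of normalised per-tile medians.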

[2] = variants of: B1; test: self-cleavage kobs at 10000 uM GlcN6P; higher = faster cleavage; RNA array
Summary of the method: as §1

[3] = variants of: B1; test: self-cleavage kobs at 640 uM GlcN6P; higher = faster cleavage; RNA array
Summary of the method: as §1

[4] = variants of: B1; test: self-cleavage kobs at 2500 uM GlcN6P; higher = faster cleavage; RNA array
Summary of the method: as §1

[5] = variants of: B1; test: self-cleavage kobs at 160 uM GlcN6P; higher = faster cleavage; RNA array
Summary of the method: as §1

Variant: C10U G40A A48C
- self-cleavage kobs at 40 uM GlcN6P [1]: < 1e-05 s⁻¹

Variant: C10U G40U U49A
- self-cleavage kobs at 40 uM GlcN6P [1]: < 1e-05 s⁻¹

Variant: C10U G41U U56C C70U
- self-cleavage kobs at 40 uM GlcN6P [1]: < 1e-05 s⁻¹

Variant: C10U G43A C61A
- self-cleavage kobs at 40 uM GlcN6P [1]: < 1e-05 s⁻¹
- self-cleavage kobs at 10000 uM GlcN6P [2]: < 1e-05 s⁻¹

Variant: C10U G44A C67A
- self-cleavage kobs at 40 uM GlcN6P [1]: < 1e-05 s⁻¹
- self-cleavage kobs at 640 uM GlcN6P [3]: < 1e-05 s⁻¹
- self-cleavage kobs at 2500 uM GlcN6P [4]: < 1e-05 s⁻¹

Variant: C10U G66A
- self-cleavage kobs at 40 uM GlcN6P [1]: < 1e-05 s⁻¹
- self-cleavage kobs at 160 uM GlcN6P [5]: < 1e-05 s⁻¹

Variant: C10U U30G
- self-cleavage kobs at 40 uM GlcN6P [1]: < 1e-05 s⁻¹

Variant: C10U U46C U56C
- self-cleavage kobs at 40 uM GlcN6P [1]: < 1e-05 s⁻¹
- self-cleavage kobs at 640 uM GlcN6P [3]: < 1e-05 s⁻¹
- self-cleavage kobs at 160 uM GlcN6P [5]: < 1e-05 s⁻¹
- self-cleavage kobs at 2500 uM GlcN6P [4]: < 1e-05 s⁻¹

Variant: C11A A14G G29A G35A A53G
- self-cleavage kobs at 40 uM GlcN6P [1]: < 1e-05 s⁻¹

Variant: C11A A33G A42U C50G
- self-cleavage kobs at 40 uM GlcN6P [1]: < 1e-05 s⁻¹
- self-cleavage kobs at 10000 uM GlcN6P [2]: < 1e-05 s⁻¹

Variant: C11A A36G A64U C67U C71U
- self-cleavage kobs at 40 uM GlcN6P [1]: < 1e-05 s⁻¹

Variant: C11A A36G G41C C67U
- self-cleavage kobs at 40 uM GlcN6P [1]: < 1e-05 s⁻¹
- self-cleavage kobs at 640 uM GlcN6P [3]: < 1e-05 s⁻¹
- self-cleavage kobs at 2500 uM GlcN6P [4]: < 1e-05 s⁻¹
- self-cleavage kobs at 10000 uM GlcN6P [2]: < 1e-05 s⁻¹

Variant: C11A A53C
- self-cleavage kobs at 40 uM GlcN6P [1]: < 1e-05 s⁻¹
- self-cleavage kobs at 160 uM GlcN6P [5]: < 1e-05 s⁻¹

Variant: C11A G29U G44U U45C C68G
- self-cleavage kobs at 40 uM GlcN6P [1]: < 1e-05 s⁻¹
- self-cleavage kobs at 640 uM GlcN6P [3]: < 1e-05 s⁻¹
- self-cleavage kobs at 2500 uM GlcN6P [4]: < 1e-05 s⁻¹

Variant: C11A G32U C34G A36C C58A G60C
- self-cleavage kobs at 40 uM GlcN6P [1]: < 1e-05 s⁻¹

Variant: C11A G40U A53U G59U U69G
- self-cleavage kobs at 40 uM GlcN6P [1]: < 1e-05 s⁻¹

Variant: C11A G51U A52G U57A G66C C70A
- self-cleavage kobs at 40 uM GlcN6P [1]: 5.04e-05 ± 1.9e-05 s⁻¹
- self-cleavage kobs at 10000 uM GlcN6P [2]: 5e-05 ± 1.4e-05 s⁻¹

Variant: C11A G63C
- self-cleavage kobs at 40 uM GlcN6P [1]: < 1e-05 s⁻¹
- self-cleavage kobs at 640 uM GlcN6P [3]: < 1e-05 s⁻¹
- self-cleavage kobs at 10000 uM GlcN6P [2]: < 1e-05 s⁻¹

Variant: C11A U45C
- self-cleavage kobs at 40 uM GlcN6P [1]: < 1e-05 s⁻¹
- self-cleavage kobs at 640 uM GlcN6P [3]: < 1e-05 s⁻¹

Variant: C11G A12G U46A C70U
- self-cleavage kobs at 40 uM GlcN6P [1]: < 1e-05 s⁻¹
- self-cleavage kobs at 10000 uM GlcN6P [2]: < 1e-05 s⁻¹

Variant: C11G A53U
- self-cleavage kobs at 40 uM GlcN6P [1]: < 1e-05 s⁻¹

Variant: C11G A64C
- self-cleavage kobs at 40 uM GlcN6P [1]: < 1e-05 s⁻¹
- self-cleavage kobs at 160 uM GlcN6P [5]: < 1e-05 s⁻¹
- self-cleavage kobs at 10000 uM GlcN6P [2]: < 1e-05 s⁻¹

Variant: C11G A64G
- self-cleavage kobs at 40 uM GlcN6P [1]: < 1e-05 s⁻¹
- self-cleavage kobs at 160 uM GlcN6P [5]: < 1e-05 s⁻¹
- self-cleavage kobs at 2500 uM GlcN6P [4]: < 1e-05 s⁻¹

Variant: C11G A64U C67A
- self-cleavage kobs at 40 uM GlcN6P [1]: < 1e-05 s⁻¹
- self-cleavage kobs at 10000 uM GlcN6P [2]: < 1e-05 s⁻¹

Variant: C11G C34A
- self-cleavage kobs at 40 uM GlcN6P [1]: < 1e-05 s⁻¹
- self-cleavage kobs at 160 uM GlcN6P [5]: < 1e-05 s⁻¹
- self-cleavage kobs at 2500 uM GlcN6P [4]: < 1e-05 s⁻¹
- self-cleavage kobs at 10000 uM GlcN6P [2]: < 1e-05 s⁻¹

Variant: C11G C34G G43C G59A
- self-cleavage kobs at 40 uM GlcN6P [1]: < 1e-05 s⁻¹
- self-cleavage kobs at 10000 uM GlcN6P [2]: < 1e-05 s⁻¹

Variant: C11G C50U
- self-cleavage kobs at 40 uM GlcN6P [1]: < 1e-05 s⁻¹
- self-cleavage kobs at 640 uM GlcN6P [3]: < 1e-05 s⁻¹
- self-cleavage kobs at 10000 uM GlcN6P [2]: < 1e-05 s⁻¹

Variant: C11G C58A
- self-cleavage kobs at 40 uM GlcN6P [1]: < 1e-05 s⁻¹
- self-cleavage kobs at 160 uM GlcN6P [5]: < 1e-05 s⁻¹
- self-cleavage kobs at 10000 uM GlcN6P [2]: < 1e-05 s⁻¹

Variant: C11G G13A U31A C68U
- self-cleavage kobs at 40 uM GlcN6P [1]: < 1e-05 s⁻¹
- self-cleavage kobs at 10000 uM GlcN6P [2]: < 1e-05 s⁻¹
